These results are taken from the RNAGym collection of RNA variant scans (doi:10.1073/pnas.2313332121).

Sequences and labels used below:
B1: TPR 5TU (parent)
chain: GGAUCUUCUCGAUCUAACAAAAAAGACAAAUCUGCCACAAAGCUUGAGAGCAUCUUCGGAUGCAGAGGCGGCAGCCUUCGGUGGCGCGAUAGCGCCAACGUUCUCAACUAUGACACGCAAAACGCGUGCUCCGUUGAAUGGAGUUUAUCAUG

Variants at the floor of the assay are shown more often than the library holds them.

Variants of B1 are the subject of the series. As to the kind of experiment: polymerase ribozyme fitness, log enrichment relative to wild type (log ratio); higher = more active; in vitro selection for triplet polymerase activity. In short, it runs like this: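 One round of in vitro selection, in triplicate, was applied to PCR-built, transcribed mutant libraries of each subunit of a heterodimeric triplet polymerase ribozyme. The steps were annealing with a biotinylated primer, partner subunit and triplets, incubation frozen at −7 °C, gel excision of extended constructs, streptavidin-bead capture and RT-PCR. Fitness is the logarithm, base 2, of genotype enrichment over wild-type enrichment from inverse-variance-weighted replicate averages of Illumina-sequenced inputs and outputs, keeping genotypes with ≥10 input reads and ≥1 read per output.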
In the case of GGAUCUUCUCGAUCUAACAAAAAAGACAAAUCUGCCACAAAGCUUGAGAGCAUCUUCGGAUGCAGAGGCGGCAGCCUUCGGUGGCUCGAUAGCGCCAACUUUCUCAACUAUGACACGCAAAACGCGUGCUCCGUUGAAUGGAGUUUAUCAUG, the “polymerase ribozyme fitness (log ratio)” value was at most -4.2.
Under GGAUCUUCUCGAUCUAACAAAAAAGACAAAUCUGCCACAAAGCUUGAGAGCAUCUUCGGAUGCAGAGGCGGCAGCCUUCGGUGGCUCAAUAGCGCCAACGUUCUCAACUAUGACACGCAAAACGCGUGCUCCGUUGAAUGGAGUUUAUCCUG stands at most -4.2; under GGAUCUUCUCGAUCUAACAAAAAAGACAAAUCUGCCACAAAGCUUGAGAGCAUCUUCGGAUGCAGAGGCGGCAGCCUUCGGUGGCCCGAUAGCGCCAACGUUCUCAACUAUGACACGCAAAACGCGUGCUCCGUUAAAUGGAGUUUAUCAUG, -1.38.
Under GGAUCUUCUCGAUCUAACAAAAAAGACAAAUCUGCCACAAAGCUUGAGAGCAUCUUCGGAUGCAGAGGCGGCAGCCUUCGGUGGCCCGAUAGCGCCAACGUUCUCAACUAUGACACGCAAAACGCGUGCUCCGUUCAAUGGAGUUUAUCAUG stands at most -4.2.
Under GGAUCUUCUCGAUCUAACAAAAAAGACAAAUCUGCCACAAAGCUUGAGAGCAUCUUCGGAUGCAGAGGCGGCAGCCUUCGGUGGCUCGAUAGCGCCAACGUUCUCAACUAUGACACGUAAAACGCGUGCUCCGUUGAAUGGAGUUUAUCAUG stands -1.69; under GGAUCUUCUCGAUCUAACAAAAAAGACAAAUCUGCCACAAAGCUUGAGAGCAUCUUCGGAUGCAGAGGCGGCAGCCUUCGGUGGCUCGAAAGCGCCAACGAUCUCGACUAUGUCACGCAUAACGCAUGCUCCGUUGAAUGGAGUUUAUCAUG, at most -4.2; under GGAUCUUCUCGAUCUAACAAAAAAGACAAAUCUGCCACAAAGCUUGAGAGCAUCUUCGGAUGCAGAGGCGGCAGCCUUCGGUGGCUCGAUAGCGCCAACGUUCUCAACUAUGACACGCAAAACGUGUGCUCCGUUGAAUGGAGUUUAUCAUG, -2.02.
Consider GGAUCUUCUCGAUCUAACAAAAAAGACAAAUCUGCCACAAAGCUUGAGAGCAUCUUCGGAUGCAGAGGCGGCAGCCUUCGGUGGCUCGAUAGCGCAAACGUUCUCAACUAUGACACGCAAAACGCGUGCUCCGUUGAAUGGAGUUUAUCAUG, for which the “polymerase ribozyme fitness (log ratio)” value is -2.89.
As for GGAUCUUCUCGAUCUAACAAAAAAGACAAAUCUGCCACAAAGCUUGAGAGCAUCUUCGGAUGCAGAGGCGGCAGCCUUCGGUGGCUCGAUAGCGCCAUCGUUCUCAACUAGGAUACGCAAAACGCGUGCUCCGUUGAAUGGAGUUUAUCAUG, the figure is -3.81; as for GGAUCUUCUCGAUCUAACAAAAAAGACAAAUCUGCCACAAAGCUUGAGAGCAUCUUCGGAUGCAGAGGCGGCAGCCUUCGGUGGCUCGAUAGCGCCAACGUUCUCAACUAUGACACGCGAAACGCGUGCUCCGUUGAAUGGAGUUUAUCAUG, -1.54; as for GGAUCUUCUCGAUCUAACAAAAAAGACAAAUCUGCCACAAAGCUUGAGAGCAUCUUCGGAUGCAGAGGCGGCAGCCUUCGGUGGCCCGAUAGCGCCAACGUUCUCAACUAUGACACGCAAAACGCGUGCUCCGUCGAAUGGCGUCUAUCAUG, at most -4.2.
GGAUCUUCUCGAUCUAACAAAAAAGACAAAUCUGCCACAAAGCUUGAGAGCAUCUUCGGAUGCAGAGGCGGCAGCCUUCGGUGGCCCUAUAGCGCCAACGUUCGCAACUAUGACAGGCAAAACGCGUGCUCCGUUGAAUGGAGUUUAUCAUG: the “polymerase ribozyme fitness (log ratio)” value was at most -4.2.
Under GGAUCUUCUCGAUCUAACAAAAAAGACAAAUCUGCCACAAAGCUUGAGAGCAUCUUCGGAUGCAGAGGCGGCAGCCUUCGGUGGCCCGAUAGCGCCAACGUUCUCAACUAUGACACGCAAAACGCGGGCUCCGUUGGAUGGAGUUGAUCAUG stands at most -4.2; under GGAUCUUCUCGAUCUAACAAAAAAGACAAAUCUGCCACAAAGCUUGAGAGCAUCUUCGGAUGCAGAGGCGGCAGCCUUCGGUGGCCCGAUAGCGCCAACGUUCUCAACUAUGAUACGCAAAACGCGUGCUCCGUUGAAUAGAGUUUAUCAUG, at most -4.2.
As for GGAUCUUCUCGAUCUAACAAAAAAGACAAAUCUGCCACAAAGCUUGAGAGCAUCUUCGGAUGCAGAGGCGGCAGCCUUCGGUGGCUCUAUAGCUCCAACGUUCUCAACUAUGACACGCAAAACGCGUGCUCCGUUGAAUGGAGUUUAUCUUG, the figure is at most -4.2.
With GGAUCUUCUCGAUCUAACAAAAAAGACAAAUCUGCCACAAAGCUUGAGAGCAUCUUCGGAUGCAGAGGCGGCAGCCUUCGGUGGCUCGAUAGCGCCAACGUUCUCAACUAUGACACGCAAAACGCGUGCUCCGUUGGAUGGAGUUUAUCAUG, the “polymerase ribozyme fitness (log ratio)” value is -3.03.
Under GGAUCUUCUCGAUCUAACAAAAAAGACAAAUCUGCCACAAAGCUUGAGAGCAUCUUCGGAUGCAGAGGCGGCAGCCUUCGGUGGCCCGAUAGCGCCAACGGUCUCAACUAUGACACGCAAAACGCGUGCUCCGUUGAAUGGAGUUUAUCAUG stands -2.8; under GGAUCUUCUCGAUCUAACAAAAAAGACAAAUCUGCCACAAAGCUUGAGAGCAUCUUCGGAUGCAGAGGCGGCAGCCUUCGGUGGCUCGCUAGCGCCAACGUUCUCAACUAUGACACGCCAAACGCGUGCUCCGUUGAAUGGAGUUUAUCAUG, -3.83; under GGAUCUUCUCGAUCUAACAAAAAAGACAAAUCUGCCACAAAGCUUGAGAGCAUCUUCGGAUGCAGAGGCGGCAGCCUUCGGUGGCCCGAUAACGCCAACGUUCUCAACUAUGACACGCAAAACGCGUGCUCCGUUGAAUGGAGUUUAUCAUG, at most -4.2.
